Substitutions are numbered along the chain they refer to. In names and notes the source's numbering stands. Results are given in words; binding and its absence hold for the method and conditions named. For part of these data: Binding seen in cells or lysates may run through a third protein. Some entries that bind do so weakly or less than the wild type. For part of these data: Tags and fused reporters may be left off the sequences shown.
Key:
[1] = target: T1, scrm-D L484F-cYFP (Arabidopsis thaliana) (UniProt Q9LSE2); assay: split reporter; BiFC; N. benthamiana leaves co-infiltrated with nYFP and cYFP fusions and p19; confocal imaging 2 d after infiltration
T1 sequence: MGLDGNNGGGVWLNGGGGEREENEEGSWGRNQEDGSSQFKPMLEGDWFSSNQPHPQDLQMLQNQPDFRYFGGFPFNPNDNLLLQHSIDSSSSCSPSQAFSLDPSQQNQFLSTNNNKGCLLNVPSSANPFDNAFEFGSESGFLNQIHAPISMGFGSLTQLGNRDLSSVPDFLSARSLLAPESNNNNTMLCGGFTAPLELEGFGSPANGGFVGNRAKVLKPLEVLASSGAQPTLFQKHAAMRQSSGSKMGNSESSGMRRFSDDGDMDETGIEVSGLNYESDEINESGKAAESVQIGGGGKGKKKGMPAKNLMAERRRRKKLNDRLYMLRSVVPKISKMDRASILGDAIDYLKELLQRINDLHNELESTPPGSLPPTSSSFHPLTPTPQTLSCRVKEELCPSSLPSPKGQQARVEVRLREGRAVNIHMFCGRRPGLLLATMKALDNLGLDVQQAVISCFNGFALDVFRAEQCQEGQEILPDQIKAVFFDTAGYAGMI

[2] = target: T2, FAMA-nYFP (Arabidopsis thaliana) (UniProt Q56YJ8); assay: split reporter; BiFC, nYFP and cYFP fusions coinfiltrated with p19 into N. benthamiana leaves, confocal imaging 2 d after infiltration
T2 sequence: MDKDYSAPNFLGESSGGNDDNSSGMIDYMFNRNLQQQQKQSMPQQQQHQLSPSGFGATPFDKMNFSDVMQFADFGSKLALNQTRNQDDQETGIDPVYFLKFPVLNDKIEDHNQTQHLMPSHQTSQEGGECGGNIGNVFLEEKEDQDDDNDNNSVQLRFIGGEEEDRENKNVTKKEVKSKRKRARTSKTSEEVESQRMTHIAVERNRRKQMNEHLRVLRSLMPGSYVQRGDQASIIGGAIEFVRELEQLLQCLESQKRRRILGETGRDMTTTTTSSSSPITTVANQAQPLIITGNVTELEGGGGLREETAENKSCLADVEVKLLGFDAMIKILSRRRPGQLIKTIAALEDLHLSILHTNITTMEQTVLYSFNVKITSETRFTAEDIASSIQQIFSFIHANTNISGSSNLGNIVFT

[3] = target: T3, MUTE-nYFP (Arabidopsis thaliana) (UniProt Q9M8K6); assay: as above
T3 sequence: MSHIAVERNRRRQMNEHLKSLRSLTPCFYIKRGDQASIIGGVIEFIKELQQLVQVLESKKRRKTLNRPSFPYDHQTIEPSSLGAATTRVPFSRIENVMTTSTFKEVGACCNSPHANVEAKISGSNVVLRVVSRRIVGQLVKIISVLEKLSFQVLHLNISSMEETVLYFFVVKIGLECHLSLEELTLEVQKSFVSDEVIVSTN

[4] = target: T4, SPCH-nYFP (Arabidopsis thaliana) (UniProt Q700C7); assay: as above
T4 sequence: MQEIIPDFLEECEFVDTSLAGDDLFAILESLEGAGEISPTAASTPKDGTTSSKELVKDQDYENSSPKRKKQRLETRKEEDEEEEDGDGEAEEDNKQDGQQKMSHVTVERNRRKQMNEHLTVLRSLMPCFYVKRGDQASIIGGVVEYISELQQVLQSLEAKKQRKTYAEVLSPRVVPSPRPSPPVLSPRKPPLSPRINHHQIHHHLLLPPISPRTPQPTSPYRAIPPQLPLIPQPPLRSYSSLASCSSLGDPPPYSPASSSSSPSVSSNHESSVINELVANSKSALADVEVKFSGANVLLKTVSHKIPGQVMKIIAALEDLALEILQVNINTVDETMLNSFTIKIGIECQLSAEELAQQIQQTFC

[5] = target: T5, MUTE fused to the DNA binding domain (Arabidopsis thaliana) (UniProt Q9M8K6); assay: two-hybrid; Matchmaker 3 system, yeast AH109; DNA binding domain fusions as bait, activation domain fusions as prey; SD -Trp -Leu -His with 0.1, 0.5 and 1 mM 3-amino-1,2,4-triazole
T5 sequence: T3 sequence

[6] = target: T6, GST-fused SCRMΔC (1-404) (Arabidopsis thaliana) (UniProt Q9LSE2); assay: BLI; as a3, samples incubated for 30 min with a 1:4 molar ratio of the synthetic E-box DNA fragment; both purified
T6 sequence: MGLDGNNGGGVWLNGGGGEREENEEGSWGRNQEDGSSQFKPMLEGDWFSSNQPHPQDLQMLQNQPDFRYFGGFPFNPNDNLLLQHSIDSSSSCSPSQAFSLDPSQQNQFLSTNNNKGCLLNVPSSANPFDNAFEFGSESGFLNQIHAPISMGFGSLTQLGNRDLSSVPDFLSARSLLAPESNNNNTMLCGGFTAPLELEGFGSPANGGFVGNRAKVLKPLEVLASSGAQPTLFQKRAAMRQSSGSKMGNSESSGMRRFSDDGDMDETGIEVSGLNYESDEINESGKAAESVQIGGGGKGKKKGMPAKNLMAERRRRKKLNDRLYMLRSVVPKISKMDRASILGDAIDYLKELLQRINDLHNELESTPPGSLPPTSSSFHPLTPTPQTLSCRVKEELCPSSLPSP

[7] = target: T7, GST-fused SCRM (1-494) (Arabidopsis thaliana) (UniProt Q9LSE2); assay: as above
T7 sequence: T1 sequence with H236R, F484L

[8] = target: T6, GST-fused SCRMΔC (1-404) (Arabidopsis thaliana); assay: BLI; as a3, samples incubated for 30 min with a 1:4 molar ratio of the control mutant E-box version of the TMM promoter fragment; both purified
[9] = target: T7, GST-fused SCRM (1-494) (Arabidopsis thaliana); assay: as above
[10] = target: T6, GST-fused SCRMΔC (1-404) (Arabidopsis thaliana); assay: BLI; as a3, samples incubated for 30 min with a 1:4 molar ratio of the TMM promoter DNA fragment; both purified
[11] = target: T7, GST-fused SCRM (1-494) (Arabidopsis thaliana); assay: as above
[12] = target: T8, MUTE-ACTL (114-202) (Arabidopsis thaliana, UniProt Q9M8K6 114-202); assay: condition: 150 μM SCRM L484F ACTL injected into 15 μM MUTE ACTL; ITC; Malvern PEAQ-ITC, 25 °C, PBS pH 7.4; 150 μM SCRM ACTL/SCRM L484F ACTL injected into 15 μM SPCH ACTL/MUTE ACTL; both purified
T8 construct: MUTE, Arabidopsis thaliana, C-terminal ACT-like domain, residues 114-202; also called MUTE ACTL domain; source: E. coli BL21, purified (glutathione resin, thrombin, Superdex-200); not shown: GST, N-terminal, cleaved
T8 sequence (looked up): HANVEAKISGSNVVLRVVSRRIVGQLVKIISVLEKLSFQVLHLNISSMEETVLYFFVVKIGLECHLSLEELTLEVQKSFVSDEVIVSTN

B1: MUTE-nYFP (protein, UniProt Q9M8K6 1-202)
chain: T3 sequence
binding [1]: no binding

B2: SCRM-cYFP (protein, UniProt Q9LSE2 1-494)
chain: T1 sequence with H236R, F484L
binding [2]: binds | binding [3]: binds | binding [4]: binds

B3: scrm-D-cYFP (protein, UniProt Q9LSE2 1-494)
chain: T1 sequence with F484L
binding [2]: binds | binding [3]: binds | binding [4]: binds

B4: SCREAM (SCRM) fused to the activation domain (protein, UniProt Q9LSE2 1-494)
chain: T1 sequence with H236R, F484L
binding [5]: binds

B5: SCRM_(L484F)-cYFP (protein, UniProt Q9LSE2 1-494)
chain: T1 sequence with H236R
binding [2]: binds | binding [3]: no binding | binding [4]: binds

B6: scrm-D_(L484F)-cYFP (protein, UniProt Q9LSE2 1-494)
chain: T1 sequence
binding [2]: binds | binding [3]: no binding | binding [4]: binds

B7: ΔNSPCH (98-364), recombinant (domain or fragment, Arabidopsis thaliana, UniProt Q700C7 98-364, looked up)
chain: GQQKMSHVTVERNRRKQMNEHLTVLRSLMPCFYVKRGDQASIIGGVVEYISELQQVLQSLEAKKQRKTYAEVLSPRVVPSPRPSPPVLSPRKPPLSPRINHHQIHHHLLLPPISPRTPQPTSPYRAIPPQLPLIPQPPLRSYSSLASCSSLGDPPPYSPASSSSSPSVSSNHESSVINELVANSKSALADVEVKFSGANVLLKTVSHKIPGQVMKIIAALEDLALEILQVNINTVDETMLNSFTIKIGIECQLSAEELAQQIQQTFC
notes: BLI and ITC name it only SPCH; ΔNSPCH (98-364) is the only long recombinant SPCH construct that the methods list; also called purified SPCH; source: E. coli BL21, purified (glutathione resin, thrombin, Superdex-200); not shown: GST, N-terminal, cleaved
binding [6]: binds | binding [7]: binds | binding [8]: binds | binding [9]: binds | binding [10]: binds | binding [11]: binds

B8: scrm-D fused to the activation domain (protein, UniProt Q9LSE2 1-494)
chain: T1 sequence with F484L
binding [5]: binds

B9: SCRM ACTL L484F (405-494) (domain or fragment, Arabidopsis thaliana, UniProt Q9LSE2 405-494, looked up)
chain: KGQQARVEVRLREGRAVNIHMFCGRRPGLLLATMKALDNLGLDVQQAVISCFNGFALDVFRAEQCQEGQEILPDQIKAVFFDTAGYAGMI
notes: SCREAM (SCRM, ICE1), Arabidopsis thaliana, At3G26744, C-terminal ACT-like domain, residues 405-494, with L484F (the methods print L485F); also called SCRM L484F ACTL; source: E. coli BL21, purified (glutathione resin, Superdex-200)
binding [12]: no binding

B10: SCRM_(L484F) fused to the activation domain (protein, UniProt Q9LSE2 1-494)
chain: T1 sequence with H236R
binding [5]: no binding

B11: scrm-D_(L484F) fused to the activation domain (protein, UniProt Q9LSE2 1-494)
chain: T1 sequence
binding [5]: no binding
